Measured values from the RNAGym collection of RNA variant scans (doi:10.7554/elife.90254).
The source gives no read counts; variants with many changes may rest on few reads.

B1: LINE1-mini (parent)
chain: GGCAGAGCUCAACACAGCGUGGCAAAGUGGCUGUGGCUAGACUGCC

Variants of: B1
Test: self-cleavage, relative activity (ratio to wild type); higher = more cleavage; in vitro, sequencing; the parent is a self-cleaving ribozyme

**Q.** Which self-cleavage does the source give for GGCAGAGCUCUAAACAGCGUGGCAAAGUUGCUGUGGUUAGACUGCC here?
**A.** 0.01

**Q.** For GGCAGAGCUCUAAACAGCGUGGCAAAGUGGCUGUGGCUAGACCGCC, which self-cleavage is on record?
**A.** 0.01

**Q.** Which self-cleavage does the source give for GGCAGAGCUCUAUACAGCGUGGCAAAUUGGCUGCGGCUAGACUGCC here?
**A.** 0.02

**Q.** With GGCAGAGCUCUACAAAGCGUUGCAAAGUGGCCGUGGCUAGAGUGCC as the variant, how does the self-cleavage read?
**A.** 0.02

**Q.** With GGCAGAGCUCUACAGAGCGUGGCAAAGUGGAUGUGGCUAGCCUGCA as the variant, how does the self-cleavage read?
**A.** 0.01

**Q.** With GGCAGAGCUCUACAUCGCAUGGAAAAGUGGCUGUGGCUAGACUGGC as the variant, how does the self-cleavage read?
**A.** 0.02

**Q.** With GGCAGAGCUCUACAUACCGGGGCAAAGUGGUUGUGGCUAGACUGCG as the variant, how does the self-cleavage read?
**A.** 0.03

**Q.** With GGCAGAGCUCUACACAGAGUGGCAAAGUGGCUGUAGCUAGUCUGCC as the variant, how does the self-cleavage read?
**A.** 0.02

**Q.** With GGCAGAGCUCUACACAGAGUGGCAAAGUGGCUGUCGAUAGACUGCC as the variant, how does the self-cleavage read?
**A.** 0.02

**Q.** Which self-cleavage does the source give for GGCAGAGCUCUACACAGAGGGCCAAAGUGGCUGCGCCUAGACAGCC here?
**A.** 0

**Q.** For GGCAGAGCUCUACACAGAGUGGCAAAGUGGCUGUGGCUAGACAGCC, which self-cleavage is on record?
**A.** 0.01

**Q.** With GGCAGAGCUCUACACAGGGUUGCAAAGUGGCUGUGGCUAGAAUGCC as the variant, how does the self-cleavage read?
**A.** 0.05

**Q.** For GGCAGAGCUCUACACAGUCUGGCAAAGUGGCUGUGGCUAGACUCCC, which self-cleavage is on record?
**A.** 0.04

**Q.** For GGCAGAGCUCUACACAGUGUGGCAAAGUGGCUGUGACUAGAAUGCC, which self-cleavage is on record?
**A.** 0.02

**Q.** With GGCAGAGCUCUACACAGCGUGGAAAAGUGUCUGUGGCUAGACUGCC as the variant, how does the self-cleavage read?
**A.** 0.02

**Q.** With GGCAGAGCUCUACACAGCGUGGAAAAGUGGCUGUGGCUAAACUGCC as the variant, how does the self-cleavage read?
**A.** 0.02

**Q.** Which self-cleavage does the source give for GGCAGAGCUCUACACAGCGUGGGGAAGUGGAUGUGGCUAGGCUGCC here?
**A.** 0

**Q.** For GGCAGAGCUCUACACAGCGUGGGAAAGUGGCUGUGGCUAGACGGCC, which self-cleavage is on record?
**A.** 0

**Q.** With GGCAGAGCUCUACACAGCGUGGUAAAGUGCCUGUGGCUAGAAUGCC as the variant, how does the self-cleavage read?
**A.** 0

**Q.** Which self-cleavage does the source give for GGCAGAGCUCUACACAGCGUGGUAAAGUGGCUGUAGCUAGACUGCC here?
**A.** 0

**Q.** For GGCAGAGCUCUACACAGCGUGGCAAAGUGGUUGUUGCUAGACUGCC, which self-cleavage is on record?
**A.** 0.02

**Q.** For GGCAGAGCUCUACACAGCGUGGCAAAGUGGCUGUGGUAAGACUGCC, which self-cleavage is on record?
**A.** 0

**Q.** Which self-cleavage does the source give for GGCAGAGCUCUACACAACGUGGCAAAGUGGAUGGGGCUAGACUGCC here?
**A.** 0

**Q.** For GGCAGAGCUCUACACAACGUGGCAAAGUGGCUGUGGCUAGACUGUC, which self-cleavage is on record?
**A.** 0.02

**Q.** Which self-cleavage does the source give for GGCAGAGCUCUACACACCGCGGCAAAGUGGCUGUGGUUAGACUGCC here?
**A.** 0.01

**Q.** With GGCAGAGCUCUACACAUCGUGGCAUAGUAGCUGUGGCUAGACUGCC as the variant, how does the self-cleavage read?
**A.** 0.05

**Q.** Which self-cleavage does the source give for GGCAGAGCUCUACACAUCGUGGCAAAAUGGCUGUGGCUAGACAGCC here?
**A.** 0.01

**Q.** Which self-cleavage does the source give for GGCAGAGCUCUACACAUCGUGGCAAAGUGGCUGUGGCUAGACUACC here?
**A.** 0.3

**Q.** Which self-cleavage does the source give for GGCAGAGCUCUACACAGCAUGGCAAAGUGGCUGUGGCUAAACUGCC here?
**A.** 0.01

**Q.** For GGCAGAGCUCUACACAGCCUGGCAAAGUGGCUGUGGCUAGAUUGCG, which self-cleavage is on record?
**A.** 0

**Q.** Which self-cleavage does the source give for GGCAGAGCUCUACACAGCCUGGCAAAGAGGUUGUGGCUAGACUGCC here?
**A.** 0.03

**Q.** Which self-cleavage does the source give for GGCAGAGCUCUACACAGCUUGGCCAAGUGGCUGUGGCUAAAAUGCC here?
**A.** 0.01

**Q.** With GGCAGAGCUCUACACAGCUUGGCAAAGUGGCUGAGGCUAGACUGCC as the variant, how does the self-cleavage read?
**A.** 0.03

**Q.** For GGCAGAGCUCUACACAGCGUAGCAGAGUGGCUGUGGCUAGACUGCC, which self-cleavage is on record?
**A.** 0.31

**Q.** For GGCAGAGCUCUACACAGCGUCGCAACGUGGCUGUGGCUAGACUACC, which self-cleavage is on record?
**A.** 0.02

**Q.** With GGCAGAGCUCUACACAGCGUCGUAAAGUGGCUGUGGCUAAAAUGCC as the variant, how does the self-cleavage read?
**A.** 0

**Q.** With GGCAGAGCUCUACACAGCGUGACAAAGCGGCUGUGGCUAGACUACC as the variant, how does the self-cleavage read?
**A.** 0.04

**Q.** For GGCAGAGCUCUACACAGCGUGCCGAAGUGGCUGUGGCUAGACUGCC, which self-cleavage is on record?
**A.** 0.09

**Q.** With GGCAGAGCUCUACACAGCGUGUCACAGUGGCUGUGGCUAGACUGCC as the variant, how does the self-cleavage read?
**A.** 0.04

**Q.** Which self-cleavage does the source give for GGCAGAGCUCUACACAGCGUGUCAAAGUGGCUGUGGCUAGAAUGCC here?
**A.** 0.02

**Q.** With GGCAGAGCUCUACACAGCGUGGCAAAAUGGCUGUGGCUAGCCUGCC as the variant, how does the self-cleavage read?
**A.** 0.03

**Q.** Which self-cleavage does the source give for GGCAGAGCUCUACACAGCGUGGCAAAAUGGCUGUGACUAGACUGCC here?
**A.** 0.03

**Q.** Which self-cleavage does the source give for GGCAGAGCUCUACACAGCGUGGCAAAUUGGCUGUGGGUAGACUGAC here?
**A.** 0

**Q.** Which self-cleavage does the source give for GGCAGAGCUCUACACAGCGUGGCAAAUUGCCUGUGGCUAGACUGCC here?
**A.** 0.07

**Q.** For GGCAGAGCUCUACACAGCGUGGCAAAUUGGCUGUGGCUAUACUGCC, which self-cleavage is on record?
**A.** 0.02

**Q.** For GGCAGAGCUCUACACAGCGUGGCAAAGUCGCUGUGGCGAUACUGCC, which self-cleavage is on record?
**A.** 0

**Q.** With GGCAGAGCUCUACACAGCGUGGCAAAGUUGAUGUGGCUAGACUGCC as the variant, how does the self-cleavage read?
**A.** 0.06

**Q.** With GGCAGAGCUCUACACAGCGUGGCAAAGUGCCUGUGGCUAGACUGGC as the variant, how does the self-cleavage read?
**A.** 0.02

**Q.** For GGCAGAGCUCUACACAGCGUGGCAAAGUGCCCGUGGCUCGACUGCC, which self-cleavage is on record?
**A.** 0.02

**Q.** With GGCAGAGCUCUACACAGCGUGGCAAAGUGCCUGUGGCUAGACCGCC as the variant, how does the self-cleavage read?
**A.** 0.01

**Q.** For GGCAGAGCUCUACACAGCGUGGCAAAGUGUCCGUGGUUAGACUGCC, which self-cleavage is on record?
**A.** 0.04

**Q.** For GGCAGAGCUCUACACAGCGUGGCAAAGUGGCUCCGGCCAGACUGCC, which self-cleavage is on record?
**A.** 0.02

**Q.** With GGCAGAGCUCUACACAGCGUGGCAAAGUGGCUUUGGCUCGACUGAC as the variant, how does the self-cleavage read?
**A.** 0.01

**Q.** With GGCAGAGCUCUACACAGCGUGGCAAAGUGGCUGUAGCGAGACUGCC as the variant, how does the self-cleavage read?
**A.** 0.02

**Q.** With GGCAGAGCUCUACACAGCGUGGCAAAGUGGCUGUUUCUAGACUGCC as the variant, how does the self-cleavage read?
**A.** 0.03

**Q.** For GGCAGAGCUCUACACAGCGUGGCAAAGUGGCUGUGACUAGACUGAC, which self-cleavage is on record?
**A.** 0.01
